In paper PMC12136788:
This is one part of the list.

B1: chr15:85967975:85967976:+_ENSMUSG00000035900_ENSMUST00000088931|mus_hu|FALSE|FALSE (ssRNA)
RNA: GGGAGUUCUACAGUCCGACGAUCCAAAGCAUUUUAGGUUUAUUUAAAUAAAAAUUAUAAUUUAUACAAUACUUUUUCUUUAAACAAACAAAGUUUUCUUAAAAAAAUGUUACAGGAGAAUUUUUUUCAUCGGUUCUUAAUACACAACAGAGGAUUGAGCAUCA
B2: 35774738_35774858_1489_3pUTR_ENSMUSG00000016534_ENSMUST00000061755|mouse|control|control (ssRNA)
RNA: GGGAGUUCUACAGUCCGACGAUCAUAGUAUUUGGAAUUCUUUUGUUUUAAUUUGAGCUCUACUAUACCACCCAAUCUAAGAGCAGGACUGUAACUAAUGUACCUUCAAUAGUAUUGCAUGCGAGAACUUGUACUUGCUUUAUUCAACAGAGGAUUGAGCAUCA
B3: chr1:163117127:163117128:-_ENSG00000143248_ENST00000313961|hu_mus|hu_hu_hu_mus_False|58_88 (ssRNA)
RNA: GGGAGUUCUACAGUCCGACGAUCUGCUACAAAGGAUGUAACUCAACACUCACAGGAACUUUUGGAAGCCUGACCAGAUUACUACUUGAUUAGCUCCUUAUAAAAUUCAGAGCGCACAAAGCGGGGCAGAGAAUCCUUCUCCAUCAACAGAGGAUUGAGCAUCA
B4: chr7:65705844:65705845:+_ENSG00000169902_ENST00000304842|hu_mus|hu_hu_hu_mus_False|8_28 (ssRNA)
RNA: GGGAGUUCUACAGUCCGACGAUCAAACGGAUCUUUGUUACAUAAAUAAGGUGCCGGCUCCCCAUGUUUAACAAUGACCUCCAGAAGGAAGGCUUGCAUGGCAGAAUCCAGCACUUCAUCUGUGACACCAGCCUCAUCCAAGCGCAACAGAGGAUUGAGCAUCA
B5: chr10:13244450:13244451:-_ENSMUSG00000019809_ENSMUST00000019945|mus_mus|FALSE|FALSE (ssRNA)
RNA: GGGAGUUCUACAGUCCGACGAUCAAGGACACCACAUUCCAUUCCAUAUACGUAUGGAAGUACCUAGUUGGUUUGGAUCAGCUAUCCAGACUUUAAGAAAUCAUGAUUGAUCCUGAUGUAAUUUGUGCACCAGUUAGAUACACCCAACAGAGGAUUGAGCAUCA
B6: chr19:42637464:42637465:+_ENSMUSG00000025184_ENSMUST00000026188|mus_hu|FALSE|FALSE (ssRNA)
RNA: GGGAGUUCUACAGUCCGACGAUCAGUUUCAACUUCCAAACACUCCACCUUCUUUGGUUUAAAAUGUCUCUGCAAAGGUGCAUUAGUUAUAACCCCAGCAUUUGGGGCUCCCUGCUGUUGUCCUUGGGAUAAUACUUCUUUGGACAACAGAGGAUUGAGCAUCA
B7: chr9:110451384:110451385:+_ENSMUSG00000044791_ENSMUST00000153838|mus_hu|FALSE|FALSE (ssRNA)
RNA: GGGAGUUCUACAGUCCGACGAUCAGGAUUUUUAUUAAUCAUUCUUAAUUCACUACCUUUUGAACAAGGUGUCUGUAAACUAAAAGAAUGAGACUGUUUGAUUUCUUCAUUUAAUUCUGUACAACAGAAAGAAUUUUUAAAUUUCAACAGAGGAUUGAGCAUCA
B8: chr1:150795811:150795812:-_ENSG00000143437_ENST00000358595|hu_hu|motif|central (ssRNA)
RNA: GGGAGUUCUACAGUCCGACGAUCCCAUUCUUGGUUCUUAGACCGGAACCGGAACAUGACAGACAGCACUUGGCCUUUUAAUUUCACGGCCUGUUGGAAGCUGUCUCUUAGAAGCUGCUGGUCUUCAGGAUGACAGAAUUCUACCAACAGAGGAUUGAGCAUCA
B9: chr4:57314706:57314707:+_ENSG00000128050_ENST00000264221|hu_mus|hu_hu_hu_mus_True|38_98 (ssRNA)
RNA: GGGAGUUCUACAGUCCGACGAUCCAGAAUUUCAAAAAUAGCCUGUGUGGCAUGACUCAUGAUGUCCACUUCAGUCUGCCCUAUAACAAGGCCAGCAAAGCAAAAUUUUGCAGCAAUGAGUUGCUCCUCAGACCACUGUGGAUCCAACAGAGGAUUGAGCAUCA
B10: 89284534_89284654_251_5pUTR_ENSMUSG00000022619_ENSMUST00000023291|mouse|control|control (ssRNA)
RNA: GGGAGUUCUACAGUCCGACGAUCCAUCUUCCCUGGAACCGCCGGCCGGCAGCGAGGGGGAGGGGUGAGGAGCACCGCGCGCCCUUGGUGCUCAGGCUCGCGGCCUCUGUCUCCCCACUCACCUCGUGACACGCCCUGCGACACCAACAGAGGAUUGAGCAUCA
B11: chr7:125341739:125341740:-_ENSMUSG00000030655_ENSMUST00000032891|mus_mus|FALSE|FALSE (ssRNA)
RNA: GGGAGUUCUACAGUCCGACGAUCUCUGUAUAGAACAUCUGUUACGUAUGCCUCUGUAAUUGGUGGACCCCGAAUUGGGCUAAAGCGUUCCCCAAUGCUCCUCACCACAGUACUGAACACACGGAGAAGUGCUGCCAGCUUUGGCAACAGAGGAUUGAGCAUCA
B12: chr12:42180722:42180723:-_ENSMUSG00000036295_ENSMUST00000043884|mus_hu|mus_mus_mus_hu_True|58_88 (ssRNA)
RNA: GGGAGUUCUACAGUCCGACGAUCCUGUAGGAGAAGAAUCUGUGUGUCGGCAGGCAAUCUGGCUGGGAAAGUUAAAAGCCCUAAAUCAUUACAAUCCACUGUAGAUGCUUCCAUAUAAAUGGAUCUGGGUGUAAACCAAGGCCUCAACAGAGGAUUGAGCAUCA
B13: chr14:35182089:35182090:-_ENSG00000165410_ENST00000422678|hu_hu|FALSE|FALSE (ssRNA)
RNA: GGGAGUUCUACAGUCCGACGAUCCUUAAGAUCCAGAUGGCACUUGACUGUCAUUUUAUAAUGGUUUUCCUUCAAGUGAAACUACUACAUUGCCUCCCAAUUUCUCUCCAAGUGUCGAACGGUCCUUAAUAUCAUCCAAGCCAUCAACAGAGGAUUGAGCAUCA
B14: chr5:71493418:71493419:+_ENSG00000131711_ENST00000296755|hu_mus|FALSE|FALSE (ssRNA)
RNA: GGGAGUUCUACAGUCCGACGAUCCCCUUCAAAGGGGCUUUCGGAACGUCUGCCAAGAACCUUGCUAUCAGCACUCAGGAAGUCUUCAUAUGGGGACUCAGAUCCAAGAAGGGGAGGACUGCGUAAAGGAGACAGAACCUUCUCCAACAGAGGAUUGAGCAUCA
B15: 114354355_114354475_683_3pUTR_ENSG00000081019_ENST00000261441|human|control|control (ssRNA)
RNA: GGGAGUUCUACAGUCCGACGAUCGCACCCCUCCAGUCCUCUCGCCGUUUUCCUGCUUGUCCUUGUGCUUGAGAUCGGUUCCGCAGGAGCUGGGAUCACCAUCGGGGCCGCGGUGGUGAUGGUGCUUGUGCCGCUCCUUGUGGCCAACAGAGGAUUGAGCAUCA
B16: chr1:39494564:39494565:+_ENSG00000168653_ENST00000372967|hu_hu|hu_hu_hu_mus_True|88_88 (ssRNA)
RNA: GGGAGUUCUACAGUCCGACGAUCAUGCAUUCGCCUCAUCGUUUUGUGCCGAAGCAAGCACUCUUCGAAGUCAUCGAACUCUAUCUUGCACUCCUUUUUCGCCCGGGUCCCACCGAUCCCGUGUGCACACUCUAUCCACUCUUUCAACAGAGGAUUGAGCAUCA
B17: 171625122_171625242_3334_3pUTR_ENSMUSG00000026678_ENSMUST00000027997|mouse|control|control (ssRNA)
RNA: GGGAGUUCUACAGUCCGACGAUCAGAAAGCUUUUUCUUUGGUUUUCAAUUGCUUUCAUUAGCCACAGGACUUAUUUAAUGGGAAAAGUGUUUAACACCAGAAGUAGUUUUGAAAUUGCUGGCUUUGUGCUGAGAAUGUUCAAUCAACAGAGGAUUGAGCAUCA
B18: 18684143_18684521_187_CDS_ENSG00000221983_ENST00000430157|human|control|control (ssRNA)
RNA: GGGAGUUCUACAGUCCGACGAUCCUCCAGCUGUUUGCCGGCAAAUAUCAGACGCUGCUGGUCAGGUGGGAUACCCUCCUUGUCUUGAAUUUUGGCUUUGACAUUCUCAAUGGUGUCACUGGGCUCGACCUCAAGGGUGAUGGUCAACAGAGGAUUGAGCAUCA
B19: 156514000_156517885_2354_CDS_ENSG00000183856_ENST00000361170|human|control|control (ssRNA)
RNA: GGGAGUUCUACAGUCCGACGAUCGGCCCAGGCCUGGAUCUUGAUUAUGGCAUCCAGGUUUGCUUUAAAAUACUGCAACCACUCCAGGUAAAUCUUCCGCUGCCUAUAACCCCGCCAAUGAGCCUGGAUCUUGAUGACUGCUGGCAACAGAGGAUUGAGCAUCA
B20: chr6:38652254:38652255:-_ENSG00000124767_ENST00000373365|hu_hu|hu_hu_hu_mus_False|48_68 (ssRNA)
RNA: GGGAGUUCUACAGUCCGACGAUCCGAGAACUUCAUAGCAGGGAAGUCAAGCUUCUGCAGGAGGGUCAUUCCAAGAACCCUCGUAUAAAAAUCCAGUGACUUCUUAGGAUCCUUAAUUCUUAGCAUCGUUUGCUGCAGUAGAAACAACAGAGGAUUGAGCAUCA
B21: chr6:114281168:114281169:-_ENSG00000196591_ENST00000368632|hu_hu|hu_hu_hu_mus_True|1_1 (ssRNA)
RNA: GGGAGUUCUACAGUCCGACGAUCUUCCAUUUUUCGGUAUAAACCAUAAUUUAGCAGCAAGUUAUGAGUCAUCCGGAUUCUAUGAGGCUUCAUGGGAUGACCCUGGCCAUAAUAAUAAUUGCCAAUAUCACCAUCAUACUAGAACAACAGAGGAUUGAGCAUCA
B22: chr1:46159212:46159213:+_ENSG00000159596_ENST00000372025|hu_mus|hu_hu_hu_mus_True|58_68 (ssRNA)
RNA: GGGAGUUCUACAGUCCGACGAUCUCUGAUCCCUCCCAAGAAAGCUAGGAAACCGGCUCCAUAAGCCAUCUGAGUAAAAGCUAAUAUGGGGAUAUAAGACUUUGUUAUUACCAUGAGAAGUGGGGGAGCAGUAAAGGGGAUUAACAACAGAGGAUUGAGCAUCA

The binders below were run against T1, UNK ZnF1-3 (human, UniProt Q9C0B0 31-174) (assay: nsRBNS (natural sequence RNA bind-n-seq); RBNS binding buffer (assumed for nsRBNS): 25 mM Tris pH 7.5, 150 mM KCl, 3 mM MgCl2, 0.01% Triton X-100, 500 ug/ml BSA, 20 U/ml SUPERase-In, 4 C; UNK is unkempt and MSI1 is Musashi-1; names of the RNAs are library labels; protein concentration not given here; high values mean tight binding).
T1 sequence: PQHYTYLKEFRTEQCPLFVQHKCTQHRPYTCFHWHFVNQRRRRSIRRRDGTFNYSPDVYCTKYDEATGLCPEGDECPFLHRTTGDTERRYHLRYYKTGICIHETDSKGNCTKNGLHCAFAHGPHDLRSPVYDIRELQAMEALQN

Binder | binding signal
B1 | 0.501 enrichment R
B2 | 0.672 enrichment R
B3 | 1.11 enrichment R
B4 | 0.456 enrichment R
B5 | 0.868 enrichment R
B6 | 1.14 enrichment R
B7 | 0.351 enrichment R
B8 | 0.8 enrichment R
B9 | 0.847 enrichment R
B10 | 0.876 enrichment R
B11 | 0.683 enrichment R
B12 | 1.15 enrichment R
B13 | 0.879 enrichment R
B14 | 1.13 enrichment R
B15 | 0.738 enrichment R
B16 | 0.677 enrichment R
B17 | 0.771 enrichment R
B18 | 0.766 enrichment R
B19 | 1.03 enrichment R
B20 | 0.835 enrichment R
B21 | 0.878 enrichment R
B22 | 1.48 enrichment R
